From PubChem BioAssay (NCATS)
The shares of active, inactive and inconclusive entries below differ from those in the screen. Potencies of inconclusive entries are left out as doubtful fits. Active and inactive are the calls of the source. The call rests on the fitted dose curve; in most records, active means well fitted inhibition curve with a large enough effect; inconclusive means small, poorly fitted or top-dose-only effect; inactive means no such curve, though single readings can be large or run the other way.

assay: Primary qHTS for small molecule stabilizers of the endoplasmic reticulum resident proteome: Secreted ER Calcium Modulated Protein (SERCaMP) assay (AID 1508630); settings: SH-SY5Y GLuc-SERCaMP (Gaussia luciferase released on ER calcium loss) secretion, thapsigargin, luminescence; series mostly up to 38.4 µM
Summary of the method: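 GLuc-SERCaMP-expressing SH-SY5Y cells, pretreated 16 h with compound, are challenged with thapsigargin to empty ER calcium stores; after 4 h, coelenterazine is added directly to the medium and luminescence is imaged.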
Potency means the concentration at half of the fitted maximal effect; tags describe the fitted curve by direction and shape.

Structure (SMILES) | Potency
Cc1cc(O)c2c(c1O)C(=O)C(O)=C(O)C2=O | inactive
OC(CN1CCNCC1)Cn1c2ccc(Br)cc2c2cc(Br)ccc21 (centres undefined) | inactive
C[C@]12C[C@H](O)CC(CO)(CO)C1[C@H](O)C[C@@]13CC4[C@@H](CC12)[C@@]4(C)C3 (some centres undefined) | inconclusive [inhibitor, partial curve, poor fit]
Cc1noc(C)c1C(=O)N1CCC[C@@]2(CCN(Cc3ccc(C#N)cc3)C2)C1 | inactive
O=S(=O)(c1ccccc1)N1CCC2(CCN(c3ccc(-c4ccccc4)cc3)CC2)CC1 | inactive
CSc1ccc([C@H]2CN3CCC[C@H]3c3ccccc32)cc1 | inconclusive [inhibitor, single point]
CC(=O)O[C@@H]1CC2C(C)(C)C(=O)C=C[C@]2(C)C2CC[C@]3(C)C(=CC[C@H]3C3CO[C@@H](C(C)(C)O)[C@H](O)C3)[C@@]21C (some centres undefined) | inactive
Nc1ncnc2c1ncn2[C@H]1O[C@@H](CSCC[C@@H](N)C(=O)O)[C@H](O)[C@@H]1O | inactive
CCCCn1c(=O)c2[nH]c(C34CC5CC(CC3C5)C4)nc2n(CCCO)c1=O | inconclusive [inhibitor, single point]
CNc1ncncc1-c1ccc(C(=O)N(C)C)cc1 | inconclusive [inhibitor, full curve]
CCCCN1CCC[C@@H]1CNC(=O)c1cc(C#N)c2ccccc2c1OC | inconclusive [inhibitor, single point]
Cc1nc2c(c(=O)[nH]1)CSCC2 | inconclusive [inhibitor, partial curve, poor fit]
FC(F)(F)c1cc(CN2CCCC3(CCNCC3)C2)cc(C(F)(F)F)c1 | inactive
O=c1ccn([C@@H]2O[C@H](COP(=O)(O)O)[C@@H](O)[C@H]2O)c(=O)[nH]1 | inconclusive [inhibitor, partial curve]
Cc1noc(C)c1C(=O)N1CCC2(CCCN(C(=O)Nc3cccc(C#N)c3)C2)CC1 | inactive
NS(=O)(=O)c1nn2cc(-c3ccccc3)nc2s1 | inactive
COc1ccc(C(=O)c2coc3ccc(O)cc23)cc1 | inconclusive [inhibitor, full curve]

Structure (SMILES) | Potency
CCCCCCCCCCCCCC(=O)N[C@@H](C)[C@H](O)c1ccccc1 | inconclusive [inhibitor, partial curve, poor fit]
C=C1CC2COC(=O)C2(Cc2ccc3ccccc3c2)C1 (centres undefined) | inactive
CCCC1OC2CC3C4CCC5=CC(=O)C=CC5(C)C4C(O)CC3(C)C2(C(=O)CO)O1 (centres undefined) | inactive
COc1ccc(Oc2ncc3nc(-c4ccccc4)c(=O)n(CCC#N)c3n2)cc1 | inconclusive [inhibitor, single point]
COc1ccc(C(=O)Oc2ccc3c(-c4ccc(OC)cc4)cc(=O)oc3c2)cc1 | inconclusive [inhibitor, partial curve, poor fit]
COC(=O)N1CCC[C@@]2(CCN(c3ccncc3)C2)C1 | inactive
O=C(O)c1cc(=O)c2cccc(O)c2[nH]1 | inactive
CCCN1CCCC(c2cccc(S(C)(=O)=O)c2)C1 (centres undefined) | inactive
c1ccc(Oc2nc(NC3CCCCC3)c3[nH]cnc3n2)cc1 | inactive
CC(=O)NCCNc1ncncc1-c1ccc(N(C)C)cc1 | inactive
CCC(C)c1ccc(O[C@@H]2O[C@H](CO)[C@@H](O)[C@H](O)[C@H]2NC(C)=O)cc1 (some centres undefined) | inconclusive [inhibitor, partial curve, poor fit]
Cc1nn(C)c2nc(NNC(=O)Nc3cc(Cl)nc(Cl)c3)cc(C(C)C)c12 | inconclusive [inhibitor, single point]
CC(O)(C(=O)Nc1ccc(S(=O)(=O)c2ccccc2)cc1)C(F)(F)F (centres undefined) | inconclusive [inhibitor, partial curve, poor fit]
CCC(=O)NC1Cc2ccccc2C(c2ccccc2)C1 (centres undefined) | inactive
O=C(O)C1CC(CCCP(=O)(O)O)CCN1 (centres undefined) | inconclusive [inhibitor, full curve]
COc1ccc2[nH]c3c(c2c1)CCNC3=O | inconclusive [inhibitor, full curve, poor fit]
Cc1nc2cnc(Oc3cccc(Cl)c3)nc2n(C[C@H]2CCCO2)c1=O | inconclusive [inhibitor, single point]
